Measured values taken from article PMC4336329 (PLoS ONE, 2015).
Screen size: about 310,000 compounds; about 14,000 (4.5%) showed an effect of 50% or more. Effects have a minus sign here. The list shows a part of the results.

The compounds below were run against human ether-à-go-go-related gene (hERG) potassium channel (human, UniProt Q12809) (assay: primary screen, population patch clamp on CHO cells stably expressing hERG).
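Note: peak tail current of the secondary pulse compared with the same well before compound.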

Chain of human ether-à-go-go-related gene (hERG) potassium channel (Q12809 whole entry, looked up): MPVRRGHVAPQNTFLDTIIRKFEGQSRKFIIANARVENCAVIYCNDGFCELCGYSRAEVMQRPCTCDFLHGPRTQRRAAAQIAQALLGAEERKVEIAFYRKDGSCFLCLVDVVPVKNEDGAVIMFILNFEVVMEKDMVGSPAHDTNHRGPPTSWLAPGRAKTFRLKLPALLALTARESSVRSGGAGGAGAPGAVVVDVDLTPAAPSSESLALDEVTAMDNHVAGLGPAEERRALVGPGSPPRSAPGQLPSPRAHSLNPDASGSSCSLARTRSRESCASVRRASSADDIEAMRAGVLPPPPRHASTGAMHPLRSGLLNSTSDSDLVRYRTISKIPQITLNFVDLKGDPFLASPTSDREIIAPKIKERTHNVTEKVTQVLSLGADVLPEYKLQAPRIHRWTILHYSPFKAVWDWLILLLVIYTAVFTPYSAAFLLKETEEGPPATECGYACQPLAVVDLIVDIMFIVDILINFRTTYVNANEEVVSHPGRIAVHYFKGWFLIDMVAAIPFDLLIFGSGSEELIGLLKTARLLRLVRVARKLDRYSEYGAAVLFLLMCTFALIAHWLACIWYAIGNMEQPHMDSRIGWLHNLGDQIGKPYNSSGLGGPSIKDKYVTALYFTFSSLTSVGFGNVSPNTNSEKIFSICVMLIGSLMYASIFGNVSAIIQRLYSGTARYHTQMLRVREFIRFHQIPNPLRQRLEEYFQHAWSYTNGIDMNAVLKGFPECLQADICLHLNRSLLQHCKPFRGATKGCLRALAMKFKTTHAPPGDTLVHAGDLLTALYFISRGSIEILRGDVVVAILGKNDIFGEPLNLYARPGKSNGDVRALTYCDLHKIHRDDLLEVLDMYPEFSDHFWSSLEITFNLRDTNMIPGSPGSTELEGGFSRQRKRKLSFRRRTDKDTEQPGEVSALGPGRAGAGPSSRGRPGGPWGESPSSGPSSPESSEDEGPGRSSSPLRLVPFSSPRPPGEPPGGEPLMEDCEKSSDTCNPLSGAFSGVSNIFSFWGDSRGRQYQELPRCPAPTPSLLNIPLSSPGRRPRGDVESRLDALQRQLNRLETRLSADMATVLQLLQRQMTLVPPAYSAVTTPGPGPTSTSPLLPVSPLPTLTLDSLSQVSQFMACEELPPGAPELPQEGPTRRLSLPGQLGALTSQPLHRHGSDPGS

First: O=C(Nc1ccc(O)cc1)c1ccccc1OCc1ccccc1
Second: O=C(Nc1ccc([N+](=O)[O-])cc1)c1ccccc1F
The “hERG current change (%, negative = inhibition) at 10uM” value of the first is higher: 10.8% for the first, -7.78% for the second.

First: Cc1csc2c(=O)sc(NC(=O)c3ccc(F)cc3Cl)nc12
Second: COc1cccc2sc(Nc3nnc(-c4ccccc4Cl)o3)nc12
The “hERG current change (%, negative = inhibition) at 10uM” value of the first is higher: 10.6% for the first, -4.23% for the second.

Compared with `CCCCC(=O)Nc1ccc(N2CCN(C(=O)CC)CC2)cc1`, `CCS(=O)(=O)N1CCN(c2ccc(S(=O)(=O)N3CCOCC3)cc2)CC1` is lower in “hERG current change (%, negative = inhibition) at 10uM” value: -2.35% for the first, -12.8% for the second.

Going from `C[C@@H]1CC=C[C@H]2[C@H]1C(=O)N(Cc1ccccc1)[C@H]2c1ccc2ccccc2c1` to `Cc1ccc(SCC(=O)N2N=CCC2c2ccccc2)cc1` (stereo not shown), the “hERG current change (%, negative = inhibition) at 10uM” value falls from 3.52% to -2.28%.

Going from `CCOc1ccc(NC(=S)N2CCC(NC(=O)C3CCCCC3)CC2)cc1` to `COc1ccc(Cn2ccnc2SCC(=O)NC2CCCC2)cc1`, the “hERG current change (%, negative = inhibition) at 10uM” value falls from 14.7% to 9.94%.

First: COc1cc(NC(=O)c2cc(-c3cccnc3)nc3ccc(Br)cc23)cc(OC)c1
Second: COc1ccc(-c2cc3ccccc3oc2=O)cc1NC(=O)c1ccc(Br)o1
The “hERG current change (%, negative = inhibition) at 10uM” value of the first is lower: -29.3% for the first, -0.342% for the second.

Going from `Cc1ccc(NC(=O)C2CCN(C(=O)c3ccccc3C)CC2)cc1` to `CC(=O)Nc1ccccc1C(=O)C(=O)Nc1ccc(C(=O)N2CCOCC2)cc1`, the “hERG current change (%, negative = inhibition) at 10uM” value falls from 27.7% to 26.5%.

Going from `Cn1c(-c2cccc([N+](=O)[O-])c2)cnc1NCc1cccc([N+](=O)[O-])c1.O=C(O)C(=O)O` to `C/C(=N\NC(=O)c1ccncc1)c1c(O)n(Cc2ccccc2)c(=O)[nH]c1=O`, the “hERG current change (%, negative = inhibition) at 10uM” value rises from -77.8% to 12.1%.

Compared with `CCOC(=O)N1CCN(C(=S)NC)CC1`, `CCN1CCN(CC(=O)Nc2cc(C)on2)CC1.O=C(O)C(=O)O` is higher in “hERG current change (%, negative = inhibition) at 10uM” value: 10.6% for the first, 19.5% for the second.

Compared with `COc1nc(NCCc2ccc(OC)c(OC)c2)nc(Nc2ccccc2)n1`, `COc1ccc(-n2c(SCC(=O)NC3CC3)nc3ccccc3c2=O)cc1OC` is higher in “hERG current change (%, negative = inhibition) at 10uM” value: -5.66% for the first, 2.79% for the second.

Going from `O=C(Nc1cn(-c2ccccc2)nc1-c1ccc(F)cc1)c1ccccc1` to `Cc1cc(C(=O)Nc2ccccc2C)c2ccccc2n1`, the “hERG current change (%, negative = inhibition) at 10uM” value falls from 15.6% to 14.1%.

First: Cc1ccc(C(C(=O)NC2CCCC2)N(Cc2cccs2)C(=O)CNC(=O)c2cccs2)o1 (stereo not shown)
Second: Cc1cc(C)cc(C(=O)Nc2ccc(NC(=O)c3cccs3)cc2)c1
The “hERG current change (%, negative = inhibition) at 10uM” value of the first is lower: -31.6% for the first, -6.6% for the second.

Compared with `C/C(=N/Nc1nc(-c2ccc(Cl)cc2)cs1)c1cccs1`, `CN(CC(=O)Nc1ccc(Cl)cc1)Cc1cc(=O)n2ccsc2n1` is lower in “hERG current change (%, negative = inhibition) at 10uM” value: 9.89% for the first, -33.3% for the second.

First: COc1ccc(CCNC(=O)CCSc2nc(-c3ccco3)cc(C(F)(F)F)n2)cc1
Second: CCCCN=C1NC(=O)C(CC(=O)NCCc2ccc(OC)cc2)S1 (stereo not shown)
The “hERG current change (%, negative = inhibition) at 10uM” value of the first is higher: 12.6% for the first, 4.33% for the second.

First: Cc1ccc2nc(-c3ccc(NC(=O)c4ccco4)cc3)[nH]c2c1
Second: Cc1ccc(NC(=O)c2cc(C(=O)c3cc(Cl)ccc3O)cn(-c3ccc(C)cc3)c2=O)cc1
The “hERG current change (%, negative = inhibition) at 10uM” value of the first is lower: -9.74% for the first, 13.9% for the second.

Compared with `Br.CCn1c(=N)n(CC(=O)c2ccc(OC)cc2)c2ccccc21`, `COc1ccc(C2CC(c3ccccc3)=NN2C(=O)CCCC(=O)O)cc1` (stereo not shown) is higher in “hERG current change (%, negative = inhibition) at 10uM” value: -18.6% for the first, 22.1% for the second.

Compared with `Cc1nc(N)sc1-c1csc(N(C)c2ccc(O)cc2)n1`, `Oc1ccc(O)c(Cc2nc3ccccc3[nH]2)c1` is lower in “hERG current change (%, negative = inhibition) at 10uM” value: 0.00228% for the first, -35.9% for the second.

Going from `CCOc1ccc(CCNC(=O)CSc2nc3ncc(Cl)cc3[nH]2)cc1OCC` to `COc1ccc(C(=O)Nc2cccnc2Cl)cc1OC`, the “hERG current change (%, negative = inhibition) at 10uM” value rises from 10.8% to 11.7%.

Compared with `CCCCCCN1CC(O)=C(c2nc3ccccc3[nH]2)C1=N`, `CCCN1CCN(CCCNC(=O)CCCn2nc(C)c3sc4ccccc4c3c2=O)CC1` is lower in “hERG current change (%, negative = inhibition) at 10uM” value: -8.94% for the first, -20.6% for the second.

Compared with `COC(=O)Cn1cnc2c(C#N)c3n(c2c1=O)CCCC3`, `COc1cc(NC(=O)CSc2nnnn2C2CCCC2)cc(OC)c1` is higher in “hERG current change (%, negative = inhibition) at 10uM” value: -9.83% for the first, 13.6% for the second.

Going from `CC(=O)O.CC(=O)Oc1ccc2c(c1)OC(c1ccccc1)CC21CC(C)(C)NC(=O)N1` (stereo not shown) to `CCOc1ccccc1NC(=O)COC(=O)c1cccc(-c2ccc(OC(C)=O)cc2)c1`, the “hERG current change (%, negative = inhibition) at 10uM” value falls from 3.82% to -3.87%.

Compared with `N#Cc1ccc(N2C(=O)[C@@H]3C(C(=O)c4ccc5ccccc5n4)=NN[C@@H]3C2=O)cc1`, `COc1ccc(S(=O)(=O)N2CCOCC2)cc1NC(=O)CCc1nc2ccccc2c(=O)[nH]1` is higher in “hERG current change (%, negative = inhibition) at 10uM” value: -4.57% for the first, 21.5% for the second.

First: O=C(Cc1c(F)cccc1Cl)Nc1ccc(S(=O)(=O)NCC2CCCO2)cc1 (stereo not shown)
Second: C/C(=N/NS(=O)(=O)c1ccccc1)c1ccc(NC(=O)C2CC2)cc1
The “hERG current change (%, negative = inhibition) at 10uM” value of the first is lower: 3.76% for the first, 15.1% for the second.

Going from `CC1(C)CC(=O)C(C(C2=C(O)CC(C)(C)CC2=O)c2ccc(Br)s2)C(=O)C1` (stereo not shown) to `CCC(C)(C)C1CCC2(CC1)NC(=O)N(CC(=O)NCCc1c[nH]c3ccccc13)C2=O` (stereo not shown), the “hERG current change (%, negative = inhibition) at 10uM” value falls from -9.92% to -20.3%.

First: Cc1ccc(S(=O)(=O)N2CCC(c3nc4c(nnn4Cc4ccccc4)c(=O)[nH]3)CC2)cc1
Second: Cc1ccc(C(OCC(O)CN2CCCCC2)c2ccccc2)cc1 (stereo not shown)
The “hERG current change (%, negative = inhibition) at 10uM” value of the first is higher: -26.6% for the first, -86.6% for the second.

Going from `CCOC(=O)c1sc(=S)n2c1[nH]c(=O)c1ccc(C(=O)OC)cc12` to `Cc1ccc(C(=O)OCC(=O)Nc2ccc(Cl)cn2)s1`, the “hERG current change (%, negative = inhibition) at 10uM” value rises from 2.32% to 7.17%.

First: CC(=O)O[C@H]1C(=O)[C@@]2(C)[C@H]([C@H](OC(=O)c3ccccc3)[C@]3(O)C[C@H](OC(=O)[C@H](O)[C@@H](NC(=O)c4ccccc4)c4ccccc4)C(C)=C1C3(C)C)[C@]1(OC(C)=O)CO[C@@H]1C[C@@H]2O
Second: C/C(CC(=O)Nc1ccccc1-c1ccccc1)=N\NC(=O)COc1ccc(C)cc1Br
The “hERG current change (%, negative = inhibition) at 10uM” value of the first is higher: 1.26% for the first, -15.7% for the second.

Compared with `c1ccc(-c2n[nH]nc2-c2ccccc2)cc1`, `S=C1CN=C(c2ccccc2)c2cc(Cl)ccc2N1` is higher in “hERG current change (%, negative = inhibition) at 10uM” value: -9.09% for the first, 5.81% for the second.

Compared with `Cc1ccc(S(=O)(=O)N(CC(=O)NCCSc2ccccn2)c2cc(C)cc(C)c2)cc1`, `Cn1cc(SCC(=O)Nc2ccc3c(c2)OCO3)c2ccccc21` is lower in “hERG current change (%, negative = inhibition) at 10uM” value: -12.9% for the first, -22.4% for the second.

First: O=C(O)c1ccc(CSc2nnc(-c3ccco3)o2)cc1
Second: CCn1c(Sc2ccc([N+](=O)[O-])cn2)nnc1-c1ccco1
The “hERG current change (%, negative = inhibition) at 10uM” value of the first is higher: 2.07% for the first, -66.5% for the second.

Going from `CCSc1nnc(NC(=O)CSc2nnc(CNC(=O)c3cc(OC)c(OC)c(OC)c3)o2)s1` to `CCOC(=O)CSc1nnc([C@H](Cc2ccccc2)NC(=O)OC(C)(C)C)o1`, the “hERG current change (%, negative = inhibition) at 10uM” value falls from 20% to -14.3%.

First: O=C(Nc1ccccc1)C1=C[C@@H](c2ccc3c(c2)OCO3)C[C@@H](OCCCCO)O1
Second: CCc1cccc(NC(=S)N(CCCN2CCOCC2)C(C)c2cc3cccc(OC)c3o2)c1 (stereo not shown)
The “hERG current change (%, negative = inhibition) at 10uM” value of the first is lower: -9.67% for the first, 1.95% for the second.

Compared with `S=c1[nH]nc(-c2ccncc2)n1/N=C/C(Cl)=C\c1ccccc1`, `O=C(NCc1ccccc1Cl)c1ccncc1` is lower in “hERG current change (%, negative = inhibition) at 10uM” value: 23.3% for the first, 13.7% for the second.

Going from `O=C(O)COc1ccc(S(=O)(=O)c2ccc(OCC(=O)O)cc2)cc1` to `CCn1ncc(/C=N/NS(=O)(=O)c2ccc(Cl)cc2)c1C`, the “hERG current change (%, negative = inhibition) at 10uM” value falls from -1.63% to -5.88%.

Compared with `C=CCc1cc(C=O)cc(OC)c1OCc1c(Cl)cccc1Cl`, `COc1ccc(/C=C/C(=O)C2C(=O)C=C(C)OC2=O)cc1O` (stereo not shown) is higher in “hERG current change (%, negative = inhibition) at 10uM” value: -16.6% for the first, -4.44% for the second.

First: CCCCNC(=O)C1CCCN(S(=O)(=O)CC)C1 (stereo not shown)
Second: Cc1c(C(=O)N2CCCC2)c(S(=O)(=O)N2CCCCC2)c(C)n1C
The “hERG current change (%, negative = inhibition) at 10uM” value of the first is higher: 13.3% for the first, -4.36% for the second.

Going from `O=C(O)CC1S/C(=N/N=C/C=C/c2ccccc2[N+](=O)[O-])NC1=O` (stereo not shown) to `COCCn1c(=O)[nH]c2cc(C(=O)NCCN3CCN(c4ccccc4F)CC3)ccc2c1=O`, the “hERG current change (%, negative = inhibition) at 10uM” value falls from 10.5% to 3.51%.

First: O=C(NC(=S)NNC(=O)c1cccs1)c1ccc(Br)o1
Second: O=C(CN1C(=O)C2CC=CCC2C1=O)Nc1ccc(Br)cc1 (stereo not shown)
The “hERG current change (%, negative = inhibition) at 10uM” value of the first is higher: 26.3% for the first, -22.7% for the second.

Compared with `OCC1(Cc2ccc(F)cc2)CCCN(CCCC(F)(F)F)C1` (stereo not shown), `COc1ccc(N2C(=O)CNC2=S)cc1` is higher in “hERG current change (%, negative = inhibition) at 10uM” value: -22.3% for the first, -2.5% for the second.

Compared with `CCOC(=O)Cc1cc(=O)[nH]c(/N=C(\N)Nc2ccc(C)c(C)c2)n1`, `CCOc1ccc(/C=N/n2c(SC)nnc(C(C)(C)C)c2=O)cc1` is higher in “hERG current change (%, negative = inhibition) at 10uM” value: 9.07% for the first, 9.52% for the second.

Going from `CC(C)C1CC(O)(C2(O)CCCCC2)ON1` (stereo not shown) to `Cc1ccc(-n2c(=O)cc(N3CC(C)CC(C)C3)[nH]c2=O)cc1` (stereo not shown), the “hERG current change (%, negative = inhibition) at 10uM” value rises from 0.709% to 23.7%.

Compared with `Nc1ncnc(Oc2cccc3cccnc23)c1[N+](=O)[O-]`, `CN(Cc1nc(-c2ccc(Cl)cc2)no1)C(=O)CCN1C(=O)[C@H]2CC=CC[C@H]2C1=O` is lower in “hERG current change (%, negative = inhibition) at 10uM” value: 25.4% for the first, -21.9% for the second.

In the case of `CCc1nnc(NC(=O)c2cnccn2)s1`, the “hERG current change (%, negative = inhibition) at 10uM” value is reported as 9.16%.
